Consider 44 molecules from ChEMBL document CHEMBL4888484, “Replenishing the malaria drug discovery pipeline: Screening and hit evaluation of the MMV Hit Generation Library 1 (HGL1) against asexual blood stage Plasmodium falciparum ,using a nano luciferase reporter read-out” (2022).

The campaign covered roughly 150,000 compounds. About 540 (0.36%) showed an effect of 50% or more. The list shows a part of the results.

The test relates to Plasmodium falciparum. Nature of the test: Primary screen in NF54 nanoGlo assay, in single point, at 2uM, 72h; a lower Z score goes with more inhibition. In kind it is functional, Erythrocyte. The following applies: timepoint 72 hour.
Take `Cn1cc(C(=O)NCCc2nc3c(c(C(F)(F)F)n2)COCC3)nn1`: the “% Inhibition” value is -6% and the Z score is recorded as 1.12.
Consider `CCN(C(=O)c1nn2cc(C)cnc2c1Cl)[C@H]1COC[C@@H]1O`, for which the “% Inhibition” value is on record as -18% and the Z score was 2.52.
On to `C[C@@H](CCc1ncnn1CC(F)(F)F)N1CCOCC1`, for which the “% Inhibition” value was -3% and the Z score was 0.51.
For `CCn1cc(C(=O)C(=O)N2Cc3cc(F)ccc3C[C@@H]2C)cn1`, the “% Inhibition” value is on record as -7% and the Z score turned out to be 0.92.
As for `Cc1nn(C)cc1CCC(=O)NC[C@H](C)Oc1ccc(Cl)cc1`, the “% Inhibition” value is -7% and the Z score worked out at 1.07.
The like results for `Cc1nc(N2CCCC2)nc(C)c1NC(=O)c1ccncc1` were, in that order, -5% and 0.82.
The like results for `O=C(NC1CCC1)c1cccc(S(=O)(=O)NC[C@H]2CCCOC2)c1` were, in that order, -18% and 2.42.
As for `O=C(NC[C@@H](c1ccco1)N1CCCC1)c1cccc(N2C(=O)CCS2(=O)=O)c1`, the “% Inhibition” value amounted to 0% and the Z score was determined as 0.
For the molecule `CC(OCCc1ccccc1)C(=O)N1CC2CC2C1` (stereo not drawn), the “% Inhibition” value stood at 4% and the Z score was -0.53.
The like results for `CC(C)(C)c1nc(NS(=O)(=O)Cc2c(Cl)cccc2Cl)no1` were, in that order, -10% and 1.04.
The like results for `O=C(NC1CC1)c1cccc2ccccc12` were, in that order, 0% and 0.03.
Turning to `Cc1ccccc1C(CC(=O)OCC(=O)N1c2ccccc2OCC1c1ccccc1)NC(N)=O` (stereo not drawn), the “% Inhibition” value is reported as -7% and the Z score was determined as 1.09.
The corresponding values for `O=C1NC[C@@H]2CCC[C@@H](CCOc3ccccc3C(=O)N3CCN(Cc4ccc(F)c(F)c4)C[C@@H]13)O2` are -6% and 0.88.
With `COC(=O)C[C@H](NC(=O)c1ccc2cc[nH]c2c1)C1CC1`, the “% Inhibition” value is reported as 7% and the Z score is given as -0.68.
The corresponding values for `CCS(=O)(=O)N(CCN1CCCCC1)C1CN(S(=O)(=O)c2cccs2)C1` are -11% and 2.11.
Take `COc1cccc(CC(=O)N2CCCC[C@H](Nc3ncccc3C(N)=O)C2)c1`: the “% Inhibition” value is on record as -6% and the Z score came out at 0.85.
The corresponding values for `O=S(=O)(CCC1CC1)Nc1ccc(-c2ccccn2)cn1` are -2% and 0.33.
The corresponding values for `COc1ccc(Cl)cc1NC(=O)Cn1c(-c2ccccc2)nc2c(c1=O)CN(C)CC2` are -10% and 1.3.
For the molecule `Cc1cn(C)nc1CN1CCC[C@H](N2CCNCC2=O)C1`, the “% Inhibition” value turned out to be 1% and the Z score was -0.13.
Turning to `C[C@H](C(=O)NCc1cc(F)cc(F)c1)C1CCOCC1`, the “% Inhibition” value was 32% and the Z score is given as -0.33.
The like results for `CC[C@H](C)NC(=O)Nc1cc(C)ns1` were, in that order, -1% and 0.09.
As for `CC(N=C(NCCCn1cccn1)NCc1ccco1)C1CCCO1` (stereo not drawn), the “% Inhibition” value is -1% and the Z score worked out at 0.09.
For `CN(C)Cc1nc(C(=O)NCc2csc3c2CCCC3)cs1`, the “% Inhibition” value was 13% and the Z score is listed as -1.67.
As to `Cn1cc2c(n1)c(=O)n(Cc1ccc(F)cc1)c(=O)n2CC(=O)N1CCN(c2ccccc2F)CC1`, the “% Inhibition” value worked out at 0% and the Z score turned out to be 0.02.
The corresponding values for `CC(=O)N1CCN(C(=O)Cc2ccccc2C)CC[C@H]1c1nc(C)no1` are -11% and 1.46.
The like results for `COC(=O)C(c1cccnc1)N1CCC(CC(C)C)C1` (stereo not drawn) were, in that order, 2% and -0.25.
In the case of `Cc1cc(C)c2c(NC(=O)Cn3ncc(N(C)C)cc3=O)nn(C)c2n1`, the “% Inhibition” value was -12% and the Z score was determined as 1.58.
The like results for `O=C(CN1C(=O)c2ccccc2Oc2ncccc21)N1CCCCC1` were, in that order, -6% and 1.11.
The corresponding values for `CCn1ncc(Br)c1C(=O)N(C)c1ncccc1OC` are 11% and -2.07.
Take `O=C(NCc1cccc(-n2ccnc2)c1)NC1CCC(O)CC1` (stereo not drawn): the “% Inhibition” value stood at 13% and the Z score is -1.74.
Turning to `O=C(Nc1ccccc1F)c1ccnc(-c2ccsc2)c1`, the “% Inhibition” value is listed as 5% and the Z score is -0.65.
The like results for `CCCC(=O)c1ncccc1N1CCO[C@@H](COC)C1` were, in that order, 7% and -1.3.
The corresponding values for `O=C1C[C@H](NC(=O)CCc2cn3ccccc3n2)c2ccccc2N1` are -5% and 0.97.
`CCCc1[nH]nc(-c2ccc(C)cc2C)c1NC(=O)Cc1ccc(F)cc1`: the “% Inhibition” value is -6% and the Z score is reported as 0.71.
The corresponding values for `CCn1c(CC2CCN(C(=O)CCc3cnccn3)CC2)nn(C)c1=O` are -2% and 0.44.
The corresponding values for `Cc1cccc(N2CCC(NCC3CCOCC3)CC2)c1C` are -7% and 1.48.
Regarding `CCN1CC[C@H]1C(=O)NC(C)(C)CCNC(=O)OC(C)(C)C`, the “% Inhibition” value stood at 16% and the Z score is reported as -2.05.
`CCC(CC)[C@H](CNC(=O)Nc1cc(S(C)(=O)=O)ccc1Cl)N1CCCC1`: the “% Inhibition” value was 7% and the Z score is -0.92.
In the case of `Cc1ccnc(CNC(=O)N[C@@H]2CCCCC[C@H]2O)c1`, the “% Inhibition” value is on record as -8% and the Z score amounted to 1.08.
On to `CN(C)c1nc2cc(NC(=O)Cn3cnnn3)ccc2o1`, for which the “% Inhibition” value is reported as -14% and the Z score is reported as 1.69.
`CCc1cc(N2C[C@@H](C)N(CCO)[C@@H](C)C2)nc(C)n1`: the “% Inhibition” value was -7% and the Z score is recorded as 0.91.
For the molecule `NC(=O)CN1CCC2(O)CCCCC2[C@@H]1c1ccc2c(c1)OCO2` (stereo partly drawn), the “% Inhibition” value is recorded as 1% and the Z score was -0.13.
With `CC(C)Cc1cc(CN(C)[C@H]2CCN(C)C2)n[nH]1`, the “% Inhibition” value is on record as -9% and the Z score is given as 1.15.
For the molecule `Cc1ccccc1Cn1c(-c2ccccn2)nnc1N1CCCC1`, the “% Inhibition” value is given as 5% and the Z score is on record as -1.
